Assay results published in PubChem BioAssay AID1508623 (National Center for Advancing Translational Sciences (NCATS), 2021).
The campaign covered roughly 48,000 compounds. About 450 (0.94%) were called active. Another 19% or so got no clear call; they are omitted. The call rests on the fitted dose curve; in most records, active means well fitted inhibition curve with a large enough effect; inconclusive means small, poorly fitted or top-dose-only effect; inactive means no such curve, though single readings can be large or run the other way. The list shows a part of the results.

Test: Primary qHTS for Identification of Small Molecule Inhibitors of Huntingtin Promoter Activity; further: nearly all actives have a fitted effect of over 50% in size
Details: HEK293 HTT promoter firefly luciferase reporter (activity 0% = vehicle and -100% = no light), 24 h; series mostly up to 57.5 µM; activity change, negative = inhibition: at the top concentration
Method in brief: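 HEK293 cells carrying firefly luciferase reporters were seeded at 2,500 per well in Opti-MEM and cultured for 24 h. They were then treated with compounds at up to 57.5 uM final for 24 h at 37 degrees C before Dual-Glo luminescence readout.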

Activity change, negative = inhibition, inactive:
COc1ccc(/C=C(/C#N)c2nc(-c3ccc(-c4ccccc4)cc3)cs2)cc1OC -9.91%, CCc1cccc(C)c1NC(=O)c1cc(S(=O)(=O)N2CCOCC2)cn1C -0.557%, COc1cc(NC(=O)CCn2cnc3ccccc3c2=O)cc(OC)c1 -12.2%, CCCCSCCCNC(=O)c1cn(CC)c2ccc(S(=O)(=O)N3CCCCCC3)cc2c1=O -9.07%, COc1ccc(OCCn2c(C)nc3cc(C)c(C)cc32)cc1 -27.1%, CCCOc1ccc(C(=O)Nc2cc(-c3nc4cc(C)cc(C)c4o3)ccc2C)cc1 -13.2% [at 11.5 µM], CN1C(=O)c2ccccc2Sc2ccc(NC(=O)N3CCN(c4ccccc4F)CC3)cc21 -16.6%, CC(C)NC(=O)C1CCN(C(=O)N2CCOc3ccc(Cl)cc32)CC1 -3.01%, Cc1cc(C)c2c(-n3cccc3)c(C(=O)NCCCN3CCCCC3C)sc2n1 (stereo not given) -3.37%, O=C(O)[C@H](O)[C@@H](O)[C@H](O[C@@H]1O[C@H](CO)[C@H](O)[C@H](O)[C@H]1O)[C@H](O)CO 3%, COc1cc(-c2noc(-c3cc(C(C)C)[nH]n3)n2)cc(OC)c1OC 11.7%, Cc1nn(S(=O)(=O)c2ccc(Cl)cc2)c(C)c1S(=O)(=O)N1CCCCCC1 -6.77%, CC(=O)Nc1nonc1-c1nnc(SCc2ccc(Cl)cc2)n1C -19.7%, CCOC(=O)c1c(NC(=O)c2cc(=O)c3c(C)cc(C)cc3o2)sc(C(C)=O)c1C 5.16%, Cc1cc(=O)c2cc(C(=O)Nc3ccccc3)ccc2[nH]1 18.7%, Cc1ccc2cccc(NC(=O)c3ccc(-c4ccc(Br)cc4)o3)c2n1 -4.22%, CCc1ccc(-n2c(-c3ccccc3)c(C)n3c4c(=O)n(C)c(=O)n(C)c4nc23)cc1 -15%, Cc1ccc(O)c(-n2nc3ccccc3n2)c1 14%, COc1cccc(N2C(=O)N(CC(=O)NCc3cccc(OC)c3OC)c3ccccc3S2(=O)=O)c1 -23.5%, CCc1ccccc1Nc1ncnc2c1nc1n2CCCC1 11.6%, COc1ccccc1N1CCN(C(=O)CCS(=O)(=O)c2cc(Br)cc3c2N(C(=O)C2CC2)CC3)CC1 -10.1%, CC(=O)O[C@H]1C[C@@H]2CC[C@@H]3[C@H](CC[C@@]4(C)[C@H]3C[C@H]([N+]3(C)CCCCC3)[C@@H]4OC(C)=O)[C@@]2(C)C[C@@H]1N1CCCCC1 14.7%, O=C(Nc1ccc(F)cc1)c1cccn1-c1nnc(N2CCCCC2)s1 1.16%, COc1ccc2oc(=O)c(C(=O)NCCc3c(C)[nH]c4ccc(Br)cc34)cc2c1 -10.6%, O=C(CSc1nnc(CNC(=O)c2ccccc2)n1-c1cccc(Cl)c1)Nc1ccccc1F -1.58%, Cc1ccc(-c2csc(/C(C#N)=C/c3ccccc3Cl)n2)cc1 36.5%, Cc1cn2c(=O)cc(COc3ccccc3NC(=O)c3ccccc3C)nc2s1 5.18%, Cc1cc(C)cc(OCC2CNC(=O)O2)c1 (stereo not given) -6.3%, O=C(NCc1cccc(F)c1)C1CCN(C(=O)c2sccc2-n2cccc2)CC1 -14.7%, O=C(Nc1cc(NC(=O)c2ccccc2Cl)ccc1Cl)c1ccccc1 -2.06%, COc1ccc(CNC(=O)c2ccc(Cn3c(=O)c4cccn4c4cccnc43)cc2)cc1OC -5.1%, CCOCCCNC(=O)NC(CCC(C)C)c1c(-n2cccc2)sc2c1CCN(C)C2 (stereo not given) -31.1%, Cc1ccc(OCC(=O)Nc2ccc(S(=O)(=O)Nc3ncccn3)cc2)c(C(C)(C)C)c1 -12.2%, CN1CCN(CCCNC(=O)c2cnn(-c3ccccc3)c2-n2cccc2)CC1 -12.6%, O=c1c2sc3ccccc3c2n(Cc2cccc(C(F)(F)F)c2)c(=O)n1Cc1ccco1 -20.8%, CC(C(O)c1ccccc1)N(C)CCOC(c1ccccc1)c1ccccc1 (stereo not given) -25.6%, CC(C)(C)C(=O)CSc1nc2ccsc2c(=O)n1Cc1ccccc1F -15.1%, Cc1ccc(C)c(-c2nc(Cn3c(=O)cc(-c4ccccc4)c4c(C)nn(C)c43)c(C)o2)c1 -22.9%, Cc1cccc(NC(=O)C2CCCN(S(=O)(=O)c3cccc4nonc34)C2)c1C (stereo not given) -19.3%, Cc1cc2oc(=O)c(CC(=O)NCCc3ccccc3)c(C)c2c2occ(C(C)(C)C)c12 1.47%, Cc1cccc(N2CCN(C(=O)c3cn(C4CCCCC4)c(=O)c4c3c3ccccc3n4C)CC2)c1C -27.8%, COc1cc2c(cc1NC(=O)COc1cc(C)ccc1C)oc1ccccc12 -14.1%, Cc1cc(C(=O)O)c2c(=O)n(C)c(=O)n(C)c2n1 1.49%, COc1ccc(-c2cn3c(n2)sc2cc(C(=O)NC4CCCc5ccccc54)ccc23)cc1 (stereo not given) -9.32%, CCN(Cc1ccccc1)Cc1c(O)ccc2c(=O)c(-c3ccccc3OC)c(C(F)(F)F)oc12 -23.4%, Cc1cccc(OCCSc2nc3ccccc3n2CC(=O)N2CCCCC2)c1C -42.3%, CC(=O)Nc1nonc1-c1nnc(SCC(=O)Nc2ccc(F)cc2F)n1-c1ccccc1 3.61%, Cc1ccc(Cn2c(CNS(=O)(=O)c3c(C)cc(C)cc3C)nc3cccnc32)cc1 -22.3%, Cc1c(C)n(Cc2ccccc2)c2ccc(C(=O)NC(C)c3ccccc3)cc12 (stereo not given) 5.93%, CCOC(=O)N1CCN(S(=O)(=O)N2CCCC(C(=O)NCc3cc(OC)ccc3OC)C2)CC1 (stereo not given) -22.7%, COc1ccc(N2CC(NC(=O)/C=C\c3ccc(OC)c(OC)c3)CC2=O)cc1 (stereo not given) 1.43%, Cc1nc(CC(=O)Nc2ccc(C)c(C)c2)cs1 19.7%, CCn1ccc2cc(S(=O)(=O)N3CCCN(C(=O)Nc4ccccc4OC)CC3)ccc21 -24.6%, COc1ccc(N2CCN(C(CNC(=O)CC(C)C)c3ccc4c(c3)OCO4)CC2)cc1 (stereo not given) -8.44%, CCc1cccc(CC)c1NC(=O)Cn1nnc2sc(-c3ccccc3)cc2c1=O 5.54%, Cc1ccc(-c2nc3ccc(Cl)cn3c2Nc2ccc3c(c2)OCCO3)o1 32.7%, COc1ccc(-c2nc(CS(=O)CC(=O)NCc3ccc(F)cc3)c(C)o2)cc1OC (stereo not given) -9.28%, CCCCOc1ccc(C2=NC(c3ccncc3)=Nc3ccc(Br)cc3N2)cc1 -18.3%, CCCCCC(=O)O[C@]1(C(C)=O)CC[C@H]2[C@@H]3CCC4=CC(=O)CC[C@]4(C)[C@H]3CC[C@@]21C -24.6%, COc1ccc(OCC(=O)Nc2ccc(C(=O)OCc3cc(=O)n4nc(C)sc4n3)cc2)cc1 -20.9%, Cc1c(Cl)cccc1-n1ncc(C(=O)N2CCc3ccccc3C2)c1C1CCN(C(=O)OC(C)(C)C)CC1 -12.7%, Cc1ccc(NC(=O)c2oc3ccccc3c2NC(=O)Cc2cccs2)cc1 9.82%, CCOc1ccccc1NC(=O)Nc1nnc(N(C)Cc2ccccc2)s1 38.3%, COc1ccccc1NC(=O)CCS(=O)(=O)c1ccc2nc(C)sc2c1 -1.59%, CC(=O)N1CCC(N(C(=O)Nc2ccc(C)c(F)c2)C(C)C)CC1 51.8%, Cc1ccccc1NC(=O)c1c(NC(=O)C(C)Oc2cccc(Cl)c2)sc2c1CCCC2 (stereo not given) -16.9%, O=C(CCn1cnc2onc(-c3ccc(F)cc3)c2c1=O)N1CCN(c2ccc(F)cc2)CC1 -13%, CCn1c(C(=O)N2CCCC(C(=O)NCCCOC)C2)cc2sccc21 (stereo not given) -22.2%, COc1ccccc1CNC(=O)CC1N=C2c3ccccc3N=C(SCC(=O)Nc3ccc(F)cc3)N2C1=O (stereo not given) 0%, COc1cc(NC(=O)c2c(-c3ccc(C)cc3)nnc3ccccc23)cc(OC)c1OC 2.57%, Cc1oc2c(c1C(=O)Nc1cccc(Br)c1)C1=NCCN1C=N2 -5.02%, O=C(Cn1nc(-c2ccccc2)ccc1=O)NCc1ccc(F)cc1Cl -8.67%, O=C(c1nc(-c2ccc(Cl)cc2)n2c1CCCCC2)N1CCN(c2ccccc2F)CC1 -16.1% [at 11.5 µM], CC(=O)Nc1ccc(NC(=O)CCCc2nc(-c3ccc(C(C)(C)C)cc3)no2)cc1 -88.7%, CCOc1cc(C(=O)Nc2ccc3oc(-c4ccc(F)cc4Cl)nc3c2)cc(OCC)c1OCC -2.84%, Cc1ccc(NC(=O)c2cc(C)nn2-c2ccccc2)cc1 -0.248%, O=C(CSc1nc(-c2ccc(F)cc2)cc(C(F)(F)F)n1)NCc1ccccc1 -25.5%, COc1ccc(OCC(=O)NCC2(N3CCN(C)CC3)CCCCC2)cc1 -3.9%, CCCCNC(=O)CCC(=O)NNc1nc2ccccc2c2nc(-c3ccccc3)nn12 -3.43%, Cc1cccc(C(=O)Nc2c3c(nn2-c2ccc(Cl)cc2)CS(=O)(=O)C3)c1 -22.3%, O=[N+]([O-])c1cc(-c2nc(-c3ccccc3)no2)ccc1NCC1CCCO1 (stereo not given) 25.4%, CCOC(=O)c1ccc2c(c1)N(Cc1cccc(OC)c1)C(=O)c1ccccc1S2(=O)=O -16.6%, CC(C)(C)OC(=O)N1CCC(c2c(C(=O)NC3CCN(Cc4ccccc4)CC3)cnn2-c2cccc(F)c2)CC1 -8.15%, Cc1ccc(-c2cc(C(=O)NC(C)c3ccccc3)c3ccccc3n2)cc1C (stereo not given) -12.2%, Cc1ccc2ncc(C(=O)NCc3ccccc3Cl)c(=O)n2c1 -17%, CC(=O)Nc1ccccc1-c1nc2ccccc2n(CC(=O)c2ccc(C)c(C)c2)c1=O 7.07%, CCC(CC)C(=O)Nc1ccc(OCc2cc(=O)n3ccsc3n2)cc1 16.6%, COc1ccc(C)cc1NCc1nnc2n1CCCCC2 -8.67%, Cc1cc(OC(C)C(=O)N(Cc2ccco2)Cc2ccccc2F)cc(C)c1Cl (stereo not given) -14.8%, COc1ccc(-c2cc(C(=O)Oc3cccc(C)c3)c3ccccc3n2)cc1 1.73%, Cc1ccc(CCNC(=O)C2CCN(c3nnc(C)c4c(C)n(-c5ccccc5)nc34)CC2)cc1 -26.3%, COc1ccc(NC(=O)C2CCCN(C(=O)c3cnn(-c4ccc(F)cc4)c3-n3cccc3)C2)cc1 (stereo not given) -23.8%, COc1ccc(NC(=O)CSc2nc3ncccc3[nH]2)c(OC)c1 -11.8%, Cn1c(=O)cc(OCC(=O)N2CCN(c3ccccc3)CC2)c2ccccc21 -5.93%, CCOc1cccc2sc(N(Cc3cccnc3)C(=O)C3CCCCC3)nc12 -16.1%
